This passage reports binding signal results from article PMC7819943, “Rice protein-binding microarrays: a tool to detect cis-acting elements near promoter regions in rice”.

This is one part of the list.

The experiment concerns the target T1, OsWOX13 (Oryza sativa, UniProt Q5QMM3 1-267).
T1 sequence: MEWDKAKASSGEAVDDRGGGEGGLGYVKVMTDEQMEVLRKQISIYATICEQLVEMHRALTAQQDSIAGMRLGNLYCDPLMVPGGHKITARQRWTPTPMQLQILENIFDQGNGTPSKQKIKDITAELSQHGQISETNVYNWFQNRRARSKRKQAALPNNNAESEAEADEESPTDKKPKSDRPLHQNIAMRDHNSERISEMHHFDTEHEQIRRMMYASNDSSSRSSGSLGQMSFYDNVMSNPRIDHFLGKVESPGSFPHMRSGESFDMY
The experiment can be described thus: protein-binding microarray (RPBM); PBS, 2% BSA, 51.3 ng/ul salmon testes DNA, 50 uM zinc acetate, 200 nM TF, 25 C, 1 h; high values mean tight binding. To be noted: protein: recombinant; tags: N-terminal polyhistidine and DsRed monomer fusion (pET32a); label: CyDye5-dUTP incorporated in the synthesized complementary strand; 3' TTTTT single-stranded linker to array surface; dsDNA, one strand shown. A digest of the protocol:
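The binding signal is fluorescence intensity per feature, in arbitrary units, read on an Axon 4000B scanner. Polyhistidine- and DsRed-tagged transcription factors (N-terminal fusions) from E. coli BL21-CodonPlus were purified on Ni–NTA and applied at 200 nM for 1 h at 25 °C to a double-stranded, BSA-blocked custom Agilent array in buffer with 50 µM zinc acetate.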
For the sequence “CATTAACAAAATTGGAAGTAGAAGGCAAGTAATTGTGTGGCGGAGTCACCTAGTGCAG”, the binding signal is 9220 fluorescence intensity (a.u.).

Consider “GTCGAAATAACTAATTTTGCTATAATCAACCACTTTGCCACGGAGTCACCTAGTGCAG”, for which the binding signal was 5590 fluorescence intensity (a.u.).

As to “GTGATTGAATTGATTGATTATGAACCATGATGATCTCATCCGGAGTCACCTAGTGCAG”, the binding signal was 43700 fluorescence intensity (a.u.).

“ATAATTGTTAGCTCTGATGTTGCCTTCATCGGAGGTCATACGGAGTCACCTAGTGCAG”: the binding signal was 8640 fluorescence intensity (a.u.).

As to “AGTTATGTAATTGGATCATGAGTAGATATACATGTGTGCTCGGAGTCACCTAGTGCAG”, the binding signal was 29300 fluorescence intensity (a.u.).

With “TTCCTTGTCTCCTACTGCTTACTCCCTCCGTCTCAAAATACGGAGTCACCTAGTGCAG”, the binding signal is 3460 fluorescence intensity (a.u.).

On to “ATAGATTGTGAAGATTTTCAGAGAAAGTTATTGCTAAACACGGAGTCACCTAGTGCAG”, for which the binding signal was 9210 fluorescence intensity (a.u.).

Turning to “TATGAATATAATTGTCTAGTTTGTTATTTGAGATAGTGGACGGAGTCACCTAGTGCAG”, the binding signal was 6230 fluorescence intensity (a.u.).

As for “GACTCAATAATCTAGATTATAATAATCCCAAGCTAAAAGACGGAGTCACCTAGTGCAG”, the binding signal was 8090 fluorescence intensity (a.u.).

For “ATTCAGATTCGCACATTGATTATCATTCCCCTTGGGTTCGCGGAGTCACCTAGTGCAG”, the binding signal was 12900 fluorescence intensity (a.u.).

“TTTAAATTTGTTCGACTGCTTCCACAAAATTTCACTCACACGGAGTCACCTAGTGCAG”: the binding signal is 7320 fluorescence intensity (a.u.).

Consider “AACTGCTAATTACGCTATTTACTGTATGCCAAATATCTAACGGAGTCACCTAGTGCAG”, for which the binding signal was 11400 fluorescence intensity (a.u.).

For “ATTAATTATGATCTGGTGTTTGTAATGCCCGTCTACTTGTCGGAGTCACCTAGTGCAG”, the binding signal was 28000 fluorescence intensity (a.u.).

Turning to “ATTAGATTGGTTATAGATAAATTGGAGTTAGTGGTGGGCTCGGAGTCACCTAGTGCAG”, the binding signal was 49900 fluorescence intensity (a.u.).

As for “TCAGGACAAATCAGCTGCTGATCAATTAATTTGGACGACTCGGAGTCACCTAGTGCAG”, the binding signal was 8380 fluorescence intensity (a.u.).

Regarding “CATAGTATAAAATTGATTAGAATGAATTTTGAGACAATTACGGAGTCACCTAGTGCAG”, the binding signal is 9260 fluorescence intensity (a.u.).

Regarding “GATATACTAATTATCCACCTTATAGAAAGATGATATGCCTCGGAGTCACCTAGTGCAG”, the binding signal is 5820 fluorescence intensity (a.u.).

Take “ATGGAGCAATTAGGTTTAAAAGATTTGTCTCGCAAATTAGCGGAGTCACCTAGTGCAG”: the binding signal is 4620 fluorescence intensity (a.u.).

As to “TATATGATTATTTTCGCGGTATGGAAAATTTAGTTGTCTTCGGAGTCACCTAGTGCAG”, the binding signal is 22100 fluorescence intensity (a.u.).

As to “ACGGAAAAGACTAATTAATCAGATGTCATACATGCAAGAACGGAGTCACCTAGTGCAG”, the binding signal is 6420 fluorescence intensity (a.u.).

For the sequence “TGTGTAACATCATGATTTGTTTGGTTTTCAACAATTTATACGGAGTCACCTAGTGCAG”, the binding signal was 3680 fluorescence intensity (a.u.).

On to “GTCAATTTGACCTGAAGATTGGATGTGTCTTGATAGCTTGCGGAGTCACCTAGTGCAG”, for which the binding signal was 7520 fluorescence intensity (a.u.).

Take “TCAATCTCTAAATCAAATTTAAACTATTTTAATTTCTCCTCGGAGTCACCTAGTGCAG”: the binding signal was 4590 fluorescence intensity (a.u.).

As to “TCTACCAATCAAATCAAATGTATTCTCATACTACTATCCTCGGAGTCACCTAGTGCAG”, the binding signal is 22700 fluorescence intensity (a.u.).

With “ACCTAACCAATTAAGATGCGTTCACTTCGCAACCCTTTAACGGAGTCACCTAGTGCAG”, the binding signal is 5550 fluorescence intensity (a.u.).

Take “AGTCTAATAACAAAACAAATTACATATTCCGCCTGTAAACCGGAGTCACCTAGTGCAG”: the binding signal is 5290 fluorescence intensity (a.u.).

Turning to “CTTTACCATCGATTGATTGACGACACCTGTTGCATGCATGCGGAGTCACCTAGTGCAG”, the binding signal was 51600 fluorescence intensity (a.u.).

Turning to “GTGGAGGGGCGGCGTTGGGCAGAGGGGCGGCACGGGTGAACGGAGTCACCTAGTGCAG”, the binding signal was 4260 fluorescence intensity (a.u.).

Regarding “ATTCTTGCTACCTATAATTGCAACATGACAGAGTGTTAAGCGGAGTCACCTAGTGCAG”, the binding signal was 5950 fluorescence intensity (a.u.).

“GCTTAAATGAATAATCTATGGTCCAAATTATCTCTCTCATCGGAGTCACCTAGTGCAG”: the binding signal is 16200 fluorescence intensity (a.u.).

Turning to “AAGCCTAATTAATCCGTCATTAACAAATATTTACTGTAGCCGGAGTCACCTAGTGCAG”, the binding signal is 24100 fluorescence intensity (a.u.).

Regarding “CTCTATGTGATGGATTATTCTTTGTTGGCAAATTGTCATTCGGAGTCACCTAGTGCAG”, the binding signal was 6430 fluorescence intensity (a.u.).

In the case of “AACAATTGACAGATCTGGTTTCAGGTTTAACCGTCTGCGGCGGAGTCACCTAGTGCAG”, the binding signal was 49800 fluorescence intensity (a.u.).

Turning to “GAGATATCTGTTGATTAAAGTCCCCATGGATTAGCTGTGTCGGAGTCACCTAGTGCAG”, the binding signal was 3390 fluorescence intensity (a.u.).

On to “AGCTAATAAATAGTTAATTTACAAGCGCTAAACAAGATAGCGGAGTCACCTAGTGCAG”, for which the binding signal is 21600 fluorescence intensity (a.u.).

For the sequence “CCCTTGATGGGCTTCTCTACCTGCGCAGTGTGATCGATTACGGAGTCACCTAGTGCAG”, the binding signal is 9420 fluorescence intensity (a.u.).

For the sequence “GATAATCACCTTTGGATCAAGCAAATCACGAAAGGACAACCGGAGTCACCTAGTGCAG”, the binding signal was 3180 fluorescence intensity (a.u.).

Turning to “GGATTATGTTACAGGTTTCAATCAATCCTGAGTCAAAATCCGGAGTCACCTAGTGCAG”, the binding signal was 6360 fluorescence intensity (a.u.).

For “AATAATTTGGTTAGTTATTGTTAAGGAGAAATTTGATTCCCGGAGTCACCTAGTGCAG”, the binding signal is 12500 fluorescence intensity (a.u.).

Turning to “TCGAGATTGGATCAAGCGGCATTAGCAGTTTGAAAGGCCACGGAGTCACCTAGTGCAG”, the binding signal was 22800 fluorescence intensity (a.u.).

For the sequence “CTCAGATTTGATCAGTGGTAATTTCTCATGTAATCTCATTCGGAGTCACCTAGTGCAG”, the binding signal was 10500 fluorescence intensity (a.u.).

On to “ATTTATGTAATTATCATTTATTTTATTGTAAATTTATTTACGGAGTCACCTAGTGCAG”, for which the binding signal is 16300 fluorescence intensity (a.u.).
